Laboratory results: US11542275B2, “Substituted imidazolidin-2-one derivatives as PRMT5 inhibitors” (Aurigene Discovery Technologies Limited, priority 2018, dated 2023)

Target: PRMT5/MEP50 Complex (Homo sapiens (Human), UniProt O14744)
Assay: PRMT5 inhibition based on TR-FRET assay
Assay type: biochemical
Conditions: 32 nM PRMT5:MEP50 complex, 50 nM Histone-H4 peptide, 1 μM SAM, 90 minutes at room temperature
Description: Protein arginine methyltransferase 5 (PRMT5) is a type II arginine methyltransferase that catalyze mono- and symmetric demethylation on arginine residues of histone or non-histone proteins in presence of S-adenosylmethionine (AdoMet or SAM) a cofactor responsible for donating the methyl group. PRMT5 is reported to be overexpressed in several human cancers. To identify compounds that inhibit the PRMT5 and decrease its activity, a TR-FRET based assay has been established. Time-resolved fluorescence resonance energy transfer (TR-FRET) HTS assays are homogeneous proximity assays where the interaction of two dye-labeled binding partners is detected by the energy transfer between a donor and an acceptor dye, and the subsequent light emission by the acceptor dye. PRMT5 catalyzes Histone H4 peptide which is biotin tagged to the Lysine amino acid at carboxyl end, in presence of S-adenosyl-1-methionine (SAM) to methylate the peptide. The antibody specific to mono methylated H4 peptide (H4R3) with Ig conjugate binds to the methylated peptide, indirectly binding to the Europium lanthanide. […]
The compound dilutions were prepared as 7.5% DMSO stock solutions in assay buffer. […] The plates were then read on Victor-3 with Excitation at 340 nm and Emissions collected at 615 and 665 nm in TR-FRET protocol. […]

| SMILES | IC50 [nM] |
| --- | --- |
| O=C1N(Cc2ccc(-n3ccccc3=O)cn2)CCN1C[C@H](O)CN1CCc2ccccc2C1 [Compound 101, (R)-6′-((3-(3-(3,4-dihydroisoquinolin-2(1H)-yl)-2-hydroxypropyl)-2-oxoimidazolidin-1-yl)methyl)-2H-[1,3′-bipyridin]-2-one] | 68 |
| O=C(c1ncc(-c2ccc(CN3CCN(C[C@H](O)CN4CCc5ccccc5C4)C3=O)nc2)cn1)N1CCCC1 [Compound 102, (R)-1-(3-(3,4-dihydroisoquinolin-2(1H)-yl)-2-hydroxypropyl)-3-((5-(2-(pyrrolidine-1-carbonyl)pyrimidin-5-yl)pyridin-2-yl)methyl)imidazolidin-2-one] | 46 |
